Values marked as one replicate rest on one cluster of the flow cell; about a third of the high ones do not repeat.
Test system: ATP
Test: switch fluorescence ratio, 500 uM ATP over buffer (Cy3 cluster intensity, sum of 5 cycles each) (fold (ratio)); higher = stronger signal-on switching upon ATP binding; sequences stand for … in TCGTCGGCAGCGTCAGATGTGTATAAGAGACAGTTTTTTTTTTTTTTTTTTTTTTTTT…TC
Conditions: aptamer strand: ATP DNA aptamer (quencher-CACCTGGGGGAGTATTGCGGAGGAAGG + anchor), 100 nM annealed; ATP concentration: 500 uM; one replicate
How it was run: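 Cy3-labelled switching-strand clusters on a modified Illumina MiSeq flow-cell were annealed to 100 nM quencher-labelled ATP aptamer and imaged first in selection buffer, then after 15 min with 500 uM ATP at 22 °C. NaOH stripping and re-annealing separated each of five buffer/ATP cycles, and clusters outside 100-1000 RFU were excluded. The fluorescence ratio sums target-cycle Cy3 intensity over buffer-cycle Cy3 intensity per cluster and averages it per switch-domain sequence.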
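Note: ATP exposure 15 min at 22 °C before imaging.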

TCAAGCAACA
switch fluorescence ratio: 1.14

CGGGGTACAG
switch fluorescence ratio: 1.01

TTGGGTTAGA
switch fluorescence ratio: 0.962

TTATAGTTAC
switch fluorescence ratio: 1.08

TATCAGGGCG
switch fluorescence ratio: 0.991

CTAAAGGATC
switch fluorescence ratio: 0.945

TCAGCCCATT
switch fluorescence ratio: 1.01

CAGGAGGGAT
switch fluorescence ratio: 1

GGATCGACGT
switch fluorescence ratio: 1.15

GGCTCCAAGG
switch fluorescence ratio: 1.03

TCAGACTCAA
switch fluorescence ratio: 1.57

ATCATAGGCG
switch fluorescence ratio: 0.947

GGGAGTTTGT
switch fluorescence ratio: 0.99

CCATTGCGGA
switch fluorescence ratio: 1.07

AACGAGATGG
switch fluorescence ratio: 0.976

TTGGAGCGTT
switch fluorescence ratio: 1.09

ACGTGACCAG
switch fluorescence ratio: 1.28

GCGATGTCGG
switch fluorescence ratio: 1

CGCGATGGGA
switch fluorescence ratio: 1.03

TGGTGGCGGC
switch fluorescence ratio: 1.03

GTCGATCACT
switch fluorescence ratio: 1.08

GGGTCTGCTT
switch fluorescence ratio: 0.978

CATGGTTTAG
switch fluorescence ratio: 0.954

ATTTAGTGAA
switch fluorescence ratio: 0.992

ATTAAGTCCG
switch fluorescence ratio: 0.965

TGCATATCGT
switch fluorescence ratio: 1

GGTTGTACTT
switch fluorescence ratio: 0.971

AATAATGGGA
switch fluorescence ratio: 0.93

TTAATGCCAC
switch fluorescence ratio: 1.01

TAAGAATATT
switch fluorescence ratio: 1.07

ATCCATGTG
switch fluorescence ratio: 1.07

TTAGATGTCT
switch fluorescence ratio: 1.01

ACATGTATTC
switch fluorescence ratio: 1.02

AACCAGAGGG
switch fluorescence ratio: 0.998

ATTAACTGC
switch fluorescence ratio: 1.02

ATGATGTTTC
switch fluorescence ratio: 0.972

TTCGCGTGCT
switch fluorescence ratio: 1.01

CGGGGCTGGG
switch fluorescence ratio: 0.981

AATCCGGCGA
switch fluorescence ratio: 1.26

AGGTCTGCAT
switch fluorescence ratio: 1.05

TCCAATGTTA
switch fluorescence ratio: 1.03

CGGACAGTCA
switch fluorescence ratio: 1.07

AAATTAACGT
switch fluorescence ratio: 1.17

CTCCGATCCG
switch fluorescence ratio: 1.32

CCTGTCTGCA
switch fluorescence ratio: 1.51

GGTACCCCTG
switch fluorescence ratio: 1.08

TCGGTTAAC
switch fluorescence ratio: 1.07

AAGCCCGTAG
switch fluorescence ratio: 1.07

GCTCTAGGGC
switch fluorescence ratio: 0.981

ATACTTGGTT
switch fluorescence ratio: 0.993

TCACATTTCT
switch fluorescence ratio: 0.999

CTCGATAAGC
switch fluorescence ratio: 1.13

TACACAACCC
switch fluorescence ratio: 1.18

CAAAAGGCGA
switch fluorescence ratio: 0.998

AATACAGTTC
switch fluorescence ratio: 0.993

ATGTAATTT
switch fluorescence ratio: 0.993

CGGGTGTAAT
switch fluorescence ratio: 1.04

TTTCGCTCTC
switch fluorescence ratio: 1.17

TGCTTAAGGT
switch fluorescence ratio: 0.999

CCTAGATATA
switch fluorescence ratio: 1.01

TGGTAGCGCT
switch fluorescence ratio: 0.996

AGAGATGAAG
switch fluorescence ratio: 1

CTTGTGTACT
switch fluorescence ratio: 0.973

CCAAGATTAC
switch fluorescence ratio: 2.44

AGGGTTCGCC
switch fluorescence ratio: 0.966

GCTGAGAATA
switch fluorescence ratio: 0.996

CCGCTGCTTT
switch fluorescence ratio: 2.13

TGGAATCATA
switch fluorescence ratio: 0.964

TTTTAGTATC
switch fluorescence ratio: 1.41

CCATGTTACA
switch fluorescence ratio: 1

TAGAATTTA
switch fluorescence ratio: 0.967

GTTTACGACG
switch fluorescence ratio: 1.01

TTATCTGACT
switch fluorescence ratio: 0.982

GGCTAGTGTG
switch fluorescence ratio: 0.988

CCATGACCT
switch fluorescence ratio: 1.36

AGCTTTTAGT
switch fluorescence ratio: 0.966

GTGATCAG
switch fluorescence ratio: 0.992

ATTAGCCTTT
switch fluorescence ratio: 1

CATAACGCA
switch fluorescence ratio: 1.35

AATCGTCACA
switch fluorescence ratio: 1.04

TCCAGGCTC
switch fluorescence ratio: 1.1

ATTATGCACG
switch fluorescence ratio: 0.98

AGAACAAGAG
switch fluorescence ratio: 1.06

TGAGGTAGCC
switch fluorescence ratio: 0.988

TATCTGATGT
switch fluorescence ratio: 0.998

TCCTTATATT
switch fluorescence ratio: 1.04

CTTGTTTGAT
switch fluorescence ratio: 1

AGTGAACAGT
switch fluorescence ratio: 0.97

TTAAACGTAA
switch fluorescence ratio: 1.16

TGTCGTTAGA
switch fluorescence ratio: 0.983

GTTGGGCGCG
switch fluorescence ratio: 0.961

GCCATGTAGA
switch fluorescence ratio: 1.03

AAATCTCAGG
switch fluorescence ratio: 0.975

ACTTGGTCCC
switch fluorescence ratio: 1.02

ATTTCTCAT
switch fluorescence ratio: 0.999

AGGGCGCGGG
switch fluorescence ratio: 0.948

TGGTCGCGTC
switch fluorescence ratio: 1.01

TGGGAGTATG
switch fluorescence ratio: 0.993

AATGGAGAGA
switch fluorescence ratio: 0.993

GCGATGTCCC
switch fluorescence ratio: 1.3

TGATCGTGTC
switch fluorescence ratio: 1.05

GACCGCATGA
switch fluorescence ratio: 2

TAAACGGCGT
switch fluorescence ratio: 1.01

TGTGTCTGGG
switch fluorescence ratio: 0.992

GCTACGATTA
switch fluorescence ratio: 1.14

ATTATAGCTG
switch fluorescence ratio: 1

GTCAGCAGGG
switch fluorescence ratio: 1.01

GACAGTCTGT
switch fluorescence ratio: 0.985

TCAGCTGT
switch fluorescence ratio: 1.05

GTCCTAGATG
switch fluorescence ratio: 0.955

TACGAGGACG
switch fluorescence ratio: 1.05

TTCTACCGC
switch fluorescence ratio: 1.25

AAAACCCCTT
switch fluorescence ratio: 2.1

ACATAGACA
switch fluorescence ratio: 1.08

TTGTTACTTA
switch fluorescence ratio: 1

TCGTCTATTC
switch fluorescence ratio: 1.18

GAGCACCCGT
switch fluorescence ratio: 1.01

CTCTATTATA
switch fluorescence ratio: 1

AATTACGTGG
switch fluorescence ratio: 0.989

TTACGAGCGT
switch fluorescence ratio: 1.01

ATGTAGTACA
switch fluorescence ratio: 0.954

AGGCGTTTCC
switch fluorescence ratio: 0.984

TATTTGCCTA
switch fluorescence ratio: 1.02

TATCCTGACG
switch fluorescence ratio: 1.04

TCGGTGGATG
switch fluorescence ratio: 0.987

GTTGTAAAAC
switch fluorescence ratio: 1.06

CGGATAGGAC
switch fluorescence ratio: 1.05

TTTGCTCGTG
switch fluorescence ratio: 0.963

AGGCAAGCTT
switch fluorescence ratio: 0.984

TTAGCTGCAT
switch fluorescence ratio: 0.976

CTTGGACAAA
switch fluorescence ratio: 1.01

CACTTCAAAT
switch fluorescence ratio: 0.977

CGAGATTTAA
switch fluorescence ratio: 1.01

CTCAGAGT
switch fluorescence ratio: 1.02

AACTTTCTGT
switch fluorescence ratio: 0.954

AACGTCGAAT
switch fluorescence ratio: 1

CAGGAGCCAC
switch fluorescence ratio: 2.11

AACGCCGAGC
switch fluorescence ratio: 1.15

GTGCGCGCCA
switch fluorescence ratio: 1.03

GACTTCCGTT
switch fluorescence ratio: 1.15

GATGCATTTA
switch fluorescence ratio: 1.03

GCCACTTCAA
switch fluorescence ratio: 1.03

CCTGCCCACC
switch fluorescence ratio: 1.48

GTCGTCAGTG
switch fluorescence ratio: 0.974

CATGTGACTT
switch fluorescence ratio: 0.964

TTAGGGCACG
switch fluorescence ratio: 1.03

CGAGACGTTC
switch fluorescence ratio: 0.974

TGGACGGGCA
switch fluorescence ratio: 1.12

ATGTGATGCG
switch fluorescence ratio: 0.945

GCTATAAAAT
switch fluorescence ratio: 0.957

TTAGACTGTT
switch fluorescence ratio: 0.944

GATAGAATT
switch fluorescence ratio: 1

CTTTGGTTCT
switch fluorescence ratio: 1.01

CAGGAAGTTG
switch fluorescence ratio: 1.06

TAAGTACGTA
switch fluorescence ratio: 1.09

TGACGGACGT
switch fluorescence ratio: 1.09

CCGGCCAGC
switch fluorescence ratio: 1.4

TAGTTTCCCC
switch fluorescence ratio: 1.16

CCCCTTCTGG
switch fluorescence ratio: 1.01

TGATGTTGCT
switch fluorescence ratio: 0.991

AGTTGTTACG
switch fluorescence ratio: 0.981

TTAATGATAA
switch fluorescence ratio: 1.01

TCCGAGCTTA
switch fluorescence ratio: 5.05

TGTCACAGTC
switch fluorescence ratio: 0.975

GCAGGAACTA
switch fluorescence ratio: 0.988

TGTCGGCGTG
switch fluorescence ratio: 1.08

CGTTTAGGGC
switch fluorescence ratio: 0.962

CACTTCTCCG
switch fluorescence ratio: 2.25

GCCATCACCT
switch fluorescence ratio: 1.11

TTTATATACA
switch fluorescence ratio: 1.06

GGGCACAGGA
switch fluorescence ratio: 0.935

GTTTACCGT
switch fluorescence ratio: 1.02

ACTCTCTGCG
switch fluorescence ratio: 1.08

ATTATTGATG
switch fluorescence ratio: 1.04

TGCGGGTTCT
switch fluorescence ratio: 1.02

CAAACGTCAT
switch fluorescence ratio: 1.14

GAGGAGAAAA
switch fluorescence ratio: 0.949

CGAGAGGCTC
switch fluorescence ratio: 0.978

CAAGGGGTAG
switch fluorescence ratio: 0.973

TCTTCACTG
switch fluorescence ratio: 1.07

TACCTGCAGG
switch fluorescence ratio: 1.02

ATAAATCCCG
switch fluorescence ratio: 0.999

GCACCCGACA
switch fluorescence ratio: 1.15

CATAAGGAAC
switch fluorescence ratio: 1.03

TCTGGGAGAG
switch fluorescence ratio: 1.2

AACGTCGTGA
switch fluorescence ratio: 0.979

GGGCGCTGT
switch fluorescence ratio: 0.984

GGCCAAGCAT
switch fluorescence ratio: 0.981

CCAATATTGA
switch fluorescence ratio: 1.03

GACTAGTTGC
switch fluorescence ratio: 1

TGCGGAGTAG
switch fluorescence ratio: 1

AGGGGCGATG
switch fluorescence ratio: 0.965

GCCTTAAGGA
switch fluorescence ratio: 1.01

AACACATTTT
switch fluorescence ratio: 1.06

CAGCAGGAAA
switch fluorescence ratio: 1.01

ATGGTCTAGT
switch fluorescence ratio: 0.99

TGCGTATCCT
switch fluorescence ratio: 0.99

ATCAGGCATG
switch fluorescence ratio: 1.02

GTCGCATGGC
switch fluorescence ratio: 1.19

GCGGCTGGTC
switch fluorescence ratio: 0.999

GCCGGCGTCA
switch fluorescence ratio: 0.972

Source: the supplement of paper PMC10126150
